B1: CPEB3 Ribozyme (parent)
chain: UAACAGGGGGCCACAGCAGAAGCGUUCACGUCGCAGCCCCUGUCAGAUUCUGGUGAAUCUGCGAAUUCUGCUGUAUAUCUC

Read counts are not given, so values of variants with three or more changes are uncertain.

Self-cleavage data for 167 variants are collected here from the RNAGym collection of RNA variant scans (doi:10.1093/nar/gkz1192).

This data set covers variants of B1. Description: self-cleavage, relative activity (ratio to wild type); higher = more cleavage; in vitro, sequencing. A digest of the protocol: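 CPEB3 self-cleaving ribozyme mutant libraries were made by rounds of error-prone PCR, barcoded, and transcribed in vitro with T7 RNA polymerase for 5 hours at 37°C. Cleavage occurred during transcription and a 15 min DNase I step before EDTA stop. RNAs were reverse transcribed with template switching and Illumina-sequenced, with DNA sequencing mapping barcodes to variants. Relative activity is the variant's cleaved/total read fraction divided by wild type's (minimum 5 reads), averaged across three batches.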
On to G8A A13U A28G G33U A45U, for which the self-cleavage was 0.03. For the variant G8A A15U U51A U54C, the self-cleavage turned out to be 0.26. Under G8A A15G A28G U43C U67A stands 0.05. Under G8A A20G A28U C39G A65G stands 0.04. As for G7U U48C G53A A56G U67C, the self-cleavage was 0.17.

For G8A A18G A56G U66C U80C, the self-cleavage worked out at 0.05. Turning to G7U G42U U48A, the self-cleavage turned out to be 0.14.

As to G8A A18U U60A A77G, the self-cleavage came out at 0.18. Consider G8A A15G C29A C37U U54A U69C, for which the self-cleavage was 0.06. With G7U G30U U58C, the self-cleavage was found to be 0.04. With G8A A18U U60C, the self-cleavage was 0.2. With G8A A13G G24A A28U U60A, the self-cleavage is 0.09. For the variant G7U U26A A28G A45U U78C, the self-cleavage is 0.08. Take G8A A18U G36A G73A: the self-cleavage worked out at 0.3. With G7U U26G A28U G33A U48A C71U, the self-cleavage was found to be 0.02.

As to G7U U49C U72A, the self-cleavage was 0.06. The figure for G8A A18G U48C U49C is 0.21. Under G7U U31A U69A stands 0.13; under G8A A20G U80A, 0.3; under G8A A15C U31A U66A U72C, 0.04. Consider G8A A20G U41C U54C A77G, for which the self-cleavage is 0.05.

With G7U U25C G73A, the self-cleavage was found to be 0.36.

With G8A A13U A15C U49A U51A U60C, the self-cleavage amounted to 0.05. In the case of G7U U41C U51C G63C A64G, the self-cleavage is 0.15. Turning to G8A A15G U72A U76C, the self-cleavage is 0.26.

Take G8A A13U A35G C62G A77U: the self-cleavage came out at 0.08. Consider G7U U48A U72C, for which the self-cleavage stood at 0.16. As for G7U U49C A57U G73C, the self-cleavage is 0.2. For the variant G8A A20U U48C, the self-cleavage was found to be 0.06. On to G8A A20G G30A A45G, for which the self-cleavage came to 0.2.

With G8A A18G U26A A75G U78C, the self-cleavage was found to be 0.22. For the variant G7U U25C A56G, the self-cleavage is 0.19. With G8A A18U A35U U41A A64U U67C, the self-cleavage turned out to be 0.03. The figure for G8A A15G C39G U43C A57G U60C is 0.12; for G7U U43C G63A A65G U80C it is 0.16; for G8A A13G A18G A20U U26A A64G U78C it is 0.03. As to G8A A20G U66A, the self-cleavage amounted to 0.13. G8A A18U G24U U58G A65G C71U: the self-cleavage came out at 0.03.

For G8A A13U C17U U41C U48C U60C A64G, the self-cleavage was 0.06.

As for G7U U41C A47G U72C U78G U80A, the self-cleavage was 0.14.

As to G8A A18G U48C A57G A64U, the self-cleavage was 0.09. As for G8A A15U A28U A45U U51A, the self-cleavage turned out to be 0.16. Consider G8A A13U A64G U72C, for which the self-cleavage came to 0.24. For the variant G8A A18G C27U U31A U43C G61C U69C, the self-cleavage was found to be 0.05. As for G8A A13C G24A U49C, the self-cleavage amounted to 0.08. Under G7U U48C A56G U67C stands 0.11. As for G8A A20G U41C U76A, the self-cleavage is 0.41.

Turning to G8A A15G C39A U54C A57U U78C, the self-cleavage was 0.04.

For the variant G8A A20G U41A A56U U60C, the self-cleavage is 0.06. Take G7U U43A U51G A56U A77U U78C: the self-cleavage amounted to 0.04.

As for G8A A20G A56G A57G U60A, the self-cleavage amounted to 0.05. Turning to G8A A15G A28G U54G A57G U72C, the self-cleavage worked out at 0.04. G8A A20G G33C U74A: the self-cleavage came to 0.07. With G8A A15G A21G C32G C44A G61C, the self-cleavage was 0.04. As to G8A A13G A47G U72C, the self-cleavage worked out at 0.06. Under G8A A20C G30C U72A U80A stands 0.04; under G8A A20U U51C A57G U74A, 0.36. Turning to G7U G30A C34U U80C, the self-cleavage is 0.04. On to G8A A18U U25C A45U U72A, for which the self-cleavage is 0.08.

As to G8A A15G G33U U41A U51A U60A U66C, the self-cleavage was 0.04. As for G8A A18G A20C U66C U69C, the self-cleavage was found to be 0.14.

Take G8A A18G C34G U54C A65G U76C: the self-cleavage came to 0.4. As for G8A A13G A21G A64G, the self-cleavage came out at 0.07. In the case of G8A A15G U58C U72C U78A, the self-cleavage stood at 0.04. With G8A A15U U31G C38A U49C, the self-cleavage is 0.03. On to G8A A20U C29G C59G U80C, for which the self-cleavage came out at 0. On to G8A A13U U60C, for which the self-cleavage was found to be 0.2. Under G8A A18C U54G G73A stands 0.54.

As to G8A A20G A35G C38A, the self-cleavage is 0.05. Under G8A A18G A75U C79U stands 0.08; under G8A A13G A21G U43A U49A U54A U69A, 0.04. In the case of G7U U31C U66C U72A C79A U80A, the self-cleavage came to 0.1. As for G7U G24A A64G, the self-cleavage was found to be 0.28. In the case of G7U U31C A35G, the self-cleavage stood at 0.16. On to G7U G24A A57G A65G U66C U67C, for which the self-cleavage is 0.04.

For G8A A13U U25C U80C, the self-cleavage worked out at 0.19. On to G8A A15U C68G U69C, for which the self-cleavage came out at 0.07. As for G7U G30U A56G, the self-cleavage came to 0.13. In the case of G8A A21G A28G U41G U49C U67A A75G, the self-cleavage worked out at 0.02.

On to G8A A20U A35U C37U A56G A65G U67C, for which the self-cleavage is 0.02. As to G7U U26C U49C U60C, the self-cleavage stood at 0.17. With G8A A13G G19A U60A A64G, the self-cleavage came to 0.06.

Regarding G8A A20U U31G U43A A45C U72C A77U, the self-cleavage came to 0.04. On to G8A A20G C23G U26C C37U U78C U80C, for which the self-cleavage was determined as 0.04. The figure for G8A A21G U25C A28C U72C is 0.06; for G8A A15U U67C it is 0.17. For G8A A18G A28G U51A A77G, the self-cleavage is 0.06. The figure for G7U U25C U72A is 0.23; for G7U G24A A57G it is 0.14. With G8A A20U G36C U48C A65C, the self-cleavage came out at 0.

Take G8A A21G A45G U49A U51C A64G: the self-cleavage stood at 0.05. The figure for G8A A20G U51C G55A is 0.31.

Regarding G8A A18G A56C U80C, the self-cleavage stood at 0.04. On to G8A A13G C37U A45C, for which the self-cleavage is 0.07. With G8A A15U A21U A45U, the self-cleavage came to 0.24.

As for G7U U31C C32U U41C A45G A65G, the self-cleavage worked out at 0.03. G8A A20G A21G C32U A35U A45G U54C: the self-cleavage stood at 0.05. The figure for G8A A13U A28G U43C G53U C71A is 0.04; for G7U U25C C34A it is 0.2. On to G7U U60A U72C, for which the self-cleavage was found to be 0.19. For G8A A18C U26C U31A U69C, the self-cleavage is 0.04. Take G7U G33C U51A U80C: the self-cleavage was 0.05. As to G8A A21G A56G U58C, the self-cleavage amounted to 0.08. As to G8A A15U U60G, the self-cleavage was found to be 0.06.

Consider G7U U66A A75G, for which the self-cleavage was 0.14.

With G8A A13U G42A U54C, the self-cleavage was 0.19. Regarding G8A A13G U26C A45U, the self-cleavage worked out at 0.07. Take G8A A18G U43A: the self-cleavage worked out at 0.09.

On to G8A A18G C23A A45G U60C, for which the self-cleavage is 0.05. Turning to G8A A18G U25C G52C G53A U60A, the self-cleavage came to 0.03. On to G7U U26G A28U G33A, for which the self-cleavage came to 0.13. For G7U U25C U78C, the self-cleavage turned out to be 0.09. Under G8A A15G C34U U51A U76C stands 0.21; under G8A A20U C34G, 0.06; under G8A A20U C27U U72A U80C, 0.05. Turning to G7U G30U U66C, the self-cleavage was 0.15. Under G8A A13G C38U stands 0.08; under G8A A15G U43C U51G, 0.07. Regarding G7U U31A U60A, the self-cleavage was 0.2.

On to G8A A20G U60C, for which the self-cleavage came to 0.18. The figure for G8A A15G U25C is 0.31; for G8A A20U A21G U69C it is 0.05; for G7U U43C A65G it is 0.08. Under G8A A13C A28C U49C U69A stands 0.07.

As to G8A A18G U26A U31C A57G U67C, the self-cleavage turned out to be 0.07. Turning to G8A A18G C32G U41G U78C, the self-cleavage came out at 0.04.

With G8A A21G G61A U67A, the self-cleavage was found to be 0.06. As for G7U U25C U60A A75G, the self-cleavage is 0.39.

In the case of G8A A15G U54C A56G, the self-cleavage was found to be 0.08. As to G8A A13U G36A U72C, the self-cleavage is 0.25. Under G7U U43C U69A stands 0.07; under G8A A15G A20G U67C U78A, 0.09; under G8A A15G U58C A64U U69A, 0.04. As to G7U U43C U60C U69A U76C, the self-cleavage came to 0.08. Under G8A A15U A28G A57G U67C stands 0.1. G7U U43C A47U U60C: the self-cleavage amounted to 0.11. With G8A A15G U25A A45G U51C, the self-cleavage is 0.04. As to G8A A13G U25C G52C U69A U80A, the self-cleavage came out at 0.04. In the case of G8A A15G A64G U72G, the self-cleavage is 0.06. Consider G8A A18U U67C, for which the self-cleavage is 0.07.

G7U U31C A35G U74A U78C: the self-cleavage is 0.24. G7U G46A U51C U69A C71U: the self-cleavage was 0.05. Under G7U U48A A56U U72C stands 0.11; under G8A A13G U26C U31C, 0.05.

For G8A A15G U31C G61A, the self-cleavage is 0.19. For G8A A15G A21G A65G, the self-cleavage was 0.39. On to G8A A21G C37U U43A U60A U66C U67A, for which the self-cleavage was 0.04.

Regarding G8A A18C U31C A77G U78C, the self-cleavage stood at 0.07. Take G7U U26C A45G A57C U80C: the self-cleavage worked out at 0.12.

Regarding G8A A15U U49C A56U, the self-cleavage was found to be 0.05. As to G8A A20G C37G, the self-cleavage was 0.32.

Consider G7U U41C A57G, for which the self-cleavage was 0.42. With G8A A18G A45U U60C U80C, the self-cleavage was determined as 0.06.

In the case of G7U U25A U26C U41C, the self-cleavage stood at 0.06.

For G8A A13U A15U A35G U72A A75G, the self-cleavage turned out to be 0.4. The figure for G7U U43A U72A U80A is 0.1; for G8A A13G A20G U31G U43C A64G it is 0.05. In the case of G8A A15U U41C G55U, the self-cleavage turned out to be 0.09.

As for G8A A18U U58C C71U U72A U80C, the self-cleavage amounted to 0.12. Consider G8A A18U A21G, for which the self-cleavage was found to be 0.17.

For G8A A13C U31C U51A U76C, the self-cleavage was determined as 0.08.

For the variant G8A A18G U26C, the self-cleavage stood at 0.06.

As to G8A A21G G33C, the self-cleavage stood at 0.06. As to G8A A15G G30U A35U U80C, the self-cleavage worked out at 0.06.

As for G7U U25G U31A U72A, the self-cleavage came out at 0.09. G8A A13U U41C G46U A64G: the self-cleavage came to 0.08. Consider G8A A18G A56G A64G, for which the self-cleavage came out at 0.06.
